# Results: paper PMC12040169 (PLOS Biology, 2025)
# The other results are listed elsewhere or left out.
# Test system: T1, C. trachomatis L2/434/Bu expressing GFP (CTL2-GFP)
# T1 construct: L2/434/Bu GFP intracellular growth in HeLa cells
# Design: species or system HeLa; C. trachomatis total inclusion area by high-content imaging, normalised to DMSO
# Details: total inclusion area; 28.5 h, 10 µM; inhibitor
# Procedure, shortened: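 Bulk GFP and resorufin signals were read first. Wells were then fixed, stained with Hoechst and imaged to detect GFP inclusions and host nuclei. MICs followed the previously described calculation.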
row,Structure (SMILES),% of control remaining
1,CC(C)(C)OC(=O)N1CCN(c2ccc([N+](=O)[O-])cn2)CC1 [CBK000134],72.0066
2,CC(CCCC(C)(C)O)CC1OCCC(C)O1 (centres unmarked) [CBK019986],24.7511
3,COc1cccc(NC(=O)N2CCN3C(=O)[C@H](CC4CCCCC4)NC(=O)[C@H]3C2)c1 [CBK289615],99.1778
4,Cc1cnc2[nH]c(C3CCCN(C(=O)c4cnn(C)c4C)C3)cc2c1 (centres unmarked) [CBK285171],96.0508
5,CC(=O)c1c(C)oc2ccc(N(C(=O)c3cccc([N+](=O)[O-])c3)S(=O)(=O)c3cccc4cccnc34)cc12 [CBK267044],97.1328
6,CC1(c2ccccc2)NC(NC2CCCCC2)=NC1=O (centres unmarked) [CBK008081],63.829
7,Cc1cc(N(C)Cc2ccccc2Br)nc(N)n1 [CBK297753],20.6044
8,CN1CCN(C(=S)SCC(=O)O)CC1 [CBK261549C],90.6712
9,Cc1nnc(SCc2nc(N)nc(Nc3ccccc3)n2)s1 [CBK266436],111.049
10,COc1cncc(-c2cnc(N)c(N3CCOCC3)n2)c1 [CBK063360],111.11
11,Cc1nn(-c2ncccn2)c2c1C(C(=O)c1ccccc1)CC(=O)N2 (centres unmarked) [CBK287890],130.711
12,O=C(NCCc1c[nH]c2ccc(Cl)cc12)c1cccnc1 [CBK159778],89.4423
13,CC(=O)Nc1c(O)nc(SCC(=O)Nc2ccc(Cl)cc2)[nH]c1=O [CBK266214],95.5502
14,N#CCCN(Cc1ccccc1)C(=O)c1ccccc1[N+](=O)[O-] [CBK264434],97.1527
15,NCCNc1ccc([N+](=O)[O-])c(Sc2nc3ccccc3[nH]2)c1 [CBK265882],92.0918
16,CN(CCCc1nc(-c2ccc(Cl)cc2)no1)S(=O)(=O)c1ccc([N+](=O)[O-])cc1 [CBK267365],122.015
17,Nc1c(C(=S)c2cccs2)oc2c1C(c1ccccc1)CC(=O)N2 (centres unmarked) [CBK020690],1.725
18,COc1ccccc1CC(CC(=O)O)C(=O)O (centres unmarked) [CBK261508],90.5765
19,COc1cc2c(cc1OC)CN(C(=O)c1ccccn1)CC2 [CBK115864],119.562
20,COC(=O)CCn1c(-c2ccccn2)cc2cccnc21 [CBK282634],99.9993
21,CC(C(=O)c1ccc(-c2ccccc2F)cc1)N1CCN(c2ccc(C#N)cc2)CC1 (centres unmarked) [CBK074706],54.8017
22,Cc1nn(C)cc1CN1CCCC(c2cc3ccccc3cn2)C1 (centres unmarked) [CBK285041],77.7594
23,CCOC(=O)CN1CCC(Oc2cncc(OCc3ccc(Cl)c(Cl)c3)n2)C1 (centres unmarked) [CBK084432],84.1916
